# The whole screen tested about 3,200 compounds, of which about 75 (2%) showed an effect of 50% or more. The list shows a part of the results.
# Test system: T1, S. aureus MSSA476
# T1 construct: MSSA476
# Parameters: species or system S. aureus MSSA476 (TSB) or V. cholerae SAD30 (LB); 384-well bacterial growth screen at 25 uM, OD600 relative to DMSO control
# Conditions: relative growth, OD600, TSB; 25 µM; inhibitor
row,SMILES,% of control remaining [%]
1,"C=CC(=O)Nc1conc1-c1ccccc1 [1-I09, N-(3-phenyl-1,2-oxazol-4-yl)prop-2-enamide]",111.473
2,"COc1ccc(-c2csc(NC(=O)CCl)n2)cc1 [4-N06, 2-chloro-N-[4-(4-methoxyphenyl)-1,3-thiazol-2-yl]acetamide]",111.291
3,"CC(C)NC(=O)C(C#N)=Cc1cnn(-c2ccc(Cl)cc2)c1 [8-I08, 3-[1-(4-chlorophenyl)-1H-pyrazol-4-yl]-2-cyano-N-(propan-2-yl)prop-2-enamide]",96.5975
4,"CC(NC(=O)C(C#N)=Cc1ccco1)c1cccc(-n2ccnc2)c1 (stereo not drawn) [9-H04, 2-cyano-3-(furan-2-yl)-N-{1-[3-(1H-imidazol-1-yl)phenyl]ethyl}prop-2-enamide]",97.3783
5,"C=CC(=O)N1CCC(n2ccnn2)CC1 [3-K09, 1-[4-(1H-1,2,3-triazol-1-yl)piperidin-1-yl]prop-2-en-1-one]",109.012
6,"O=C(CCl)Nc1cccc(S(=O)(=O)N2CCOCC2)c1 [4-P08, 2-chloro-N-[3-(morpholine-4-sulfonyl)phenyl]acetamide]",119.295
7,"Cc1c(C=C(C#N)C(=O)Nc2ccccc2F)cc(C#N)n1C [8-A13, 2-cyano-3-(5-cyano-1,2-dimethyl-1H-pyrrol-3-yl)-N-(2-fluorophenyl)prop-2-enamide]",117.178
8,"CC1CCN(C(=O)CCl)c2cc(Cl)ccc2S1 (stereo not drawn) [4-G16, 2-chloro-1-(7-chloro-2-methyl-2,3,4,5-tetrahydro-1,5-benzothiazepin-5-yl)ethan-1-one]",93.3778
9,"C=CC(=O)NCc1ccccc1-n1nc(C)cc1C [3-P19, N-{[2-(3,5-dimethyl-1H-pyrazol-1-yl)phenyl]methyl}prop-2-enamide]",112.843
10,"N#CC(=Cc1ccc(Cl)cc1Cl)C(N)=O [8-H17, 2-cyano-3-(2,4-dichlorophenyl)prop-2-enamide]",123.485
11,"N#CC(C(=O)Nc1ccc(Cl)cc1)=C(S)Nc1ccccc1 [8-H22, N-(4-chlorophenyl)-2-cyano-3-(phenylamino)-3-sulfanylprop-2-enamide]",74.3568
12,"C=CC(=O)N1CCCc2cccc(F)c21 [1-L19, 1-(8-fluoro-1,2,3,4-tetrahydroquinolin-1-yl)prop-2-en-1-one]",125.538
13,"CC(Cl)C(=O)N1CCC(n2ncc3ccccc32)C1 (stereo not drawn) [7-K04, 2-chloro-1-[3-(1H-indazol-1-yl)pyrrolidin-1-yl]propan-1-one]",74.4113
14,"Cl.O=C(CCl)c1ccncc1 [10-M09, 2-chloro-1-(pyridin-4-yl)ethan-1-one hydrochloride]",111.875
15,"C=CC(=O)NCCn1nnnc1C [2-A03, N-[2-(5-methyl-1H-1,2,3,4-tetrazol-1-yl)ethyl]prop-2-enamide]",125.326
16,"CC(C)Cc1ccc(C(C)NC(=O)CCl)cc1 (stereo not drawn) [4-H03, 2-chloro-N-{1-[4-(2-methylpropyl)phenyl]ethyl}acetamide]",75.8456
17,"CCC(=O)NC1CCN(C(=O)CCl)C1 (stereo not drawn) [5-G04, N-[1-(2-chloroacetyl)pyrrolidin-3-yl]propanamide]",75.4098
18,"COc1ccccc1C=CC=C(C#N)C(=O)Nc1ccccn1 [9-L17, 2-cyano-5-(2-methoxyphenyl)-N-(pyridin-2-yl)penta-2,4-dienamide]",86.8914
19,"O=C(CCl)NCc1ccccc1CS(=O)(=O)N1CCOCC1 [4-G08, 2-chloro-N-({2-[(morpholine-4-sulfonyl)methyl]phenyl}methyl)acetamide]",110.91
20,"C=CC(=O)Nc1cc(NC(=O)C2(OC)CCOC2)ccc1F (stereo not drawn) [3-D05, N-[4-fluoro-3-(prop-2-enamido)phenyl]-3-methoxyoxolane-3-carboxamide]",96.8219
21,"O=C(CCl)NCCc1nc2c(s1)CCCCC2 [4-J21, 2-chloro-N-(2-{4H,5H,6H,7H,8H-cyclohepta[d][1,3]thiazol-2-yl}ethyl)acetamide]",93.3778
22,"Cc1cc(C(=O)CCl)c(C)n1-c1cc(Cl)cc(Cl)c1 [10-I04, 2-chloro-1-[1-(3,5-dichlorophenyl)-2,5-dimethyl-1H-pyrrol-3-yl]ethan-1-one]",0
23,"C=CC(=O)N1CCC(c2nnnn2C)CC1 [2-I06, 1-[4-(1-methyl-1H-1,2,3,4-tetrazol-5-yl)piperidin-1-yl]prop-2-en-1-one]",104.439

row,SMILES,% of control remaining [%]
1,"CC(C)NC(=O)C(C#N)=Cc1cc(F)ccc1F [8-C08, 2-cyano-3-(2,5-difluorophenyl)-N-(propan-2-yl)prop-2-enamide]",136.1
2,"Cc1ccc(-c2csc(NC(=O)CCl)n2)cc1C [5-F16, 2-chloro-N-[4-(3,4-dimethylphenyl)-1,3-thiazol-2-yl]acetamide]",97.9964
3,"C=CC(=O)NCc1cc(Cl)cc(S(C)(=O)=O)c1 [3-N15, N-[(3-chloro-5-methanesulfonylphenyl)methyl]prop-2-enamide]",97.5185
4,"C=CC(=O)Nc1cc(NC(=O)[C@H]2C[C@@H](C(C)=O)C2(C)C)ccc1F [2-H22, (1S,3R)-3-acetyl-N-[4-fluoro-3-(prop-2-enamido)phenyl]-2,2-dimethylcyclobutane-1-carboxamide]",99.2167
5,"C=CC(=O)Nc1ccc2cc(N(C)C)ccc2c1 [1-E19, N-[6-(dimethylamino)naphthalen-2-yl]prop-2-enamide]",114.286
6,"COc1ccc(C=C(C#N)C(=O)Nc2c(C)cccc2C)cc1OC [8-A17, 2-cyano-3-(3,4-dimethoxyphenyl)-N-(2,6-dimethylphenyl)prop-2-enamide]",99.2531
7,"C=CC(=O)Nc1cnn(-c2ccncc2)c1C(F)F [1-O09, N-[5-(difluoromethyl)-1-(pyridin-4-yl)-1H-pyrazol-4-yl]prop-2-enamide]",115.692
8,"CC(Cl)C(=O)N1CCC(N(C)Cc2cc(=O)[nH]c(N(C)C)n2)C1 (stereo not drawn) [7-E18, 6-({[1-(2-chloropropanoyl)pyrrolidin-3-yl](methyl)amino}methyl)-2-(dimethylamino)-3,4-dihydropyrimidin-4-one]",109.89
9,"CCCNC(=O)C(C#N)=Cc1cnc2c(C)cccn12 [9-N14, 2-cyano-3-{8-methylimidazo[1,2-a]pyridin-3-yl}-N-propylprop-2-enamide]",88.6891
10,"CCOC(=O)c1c(NC(=O)C(C)Cl)sc2c1CCC(C)C2 (stereo not drawn) [5-D04, ethyl 2-(2-chloropropanamido)-6-methyl-4,5,6,7-tetrahydro-1-benzothiophene-3-carboxylate]",162.477
11,"Cc1nn(-c2ccccc2)c(C)c1C=C(C#N)C(=O)Nc1nccs1 [9-E07, 2-cyano-3-(3,5-dimethyl-1-phenyl-1H-pyrazol-4-yl)-N-(1,3-thiazol-2-yl)prop-2-enamide]",103.67
12,"CC(Cl)C(=O)N1CCCC1c1nc(N(C)C)no1 (stereo not drawn) [7-F19, 2-chloro-1-{2-[3-(dimethylamino)-1,2,4-oxadiazol-5-yl]pyrrolidin-1-yl}propan-1-one]",110.518
13,"C=CC(=O)NCCN1CCCCC1C (stereo not drawn) [2-M09, N-[2-(2-methylpiperidin-1-yl)ethyl]prop-2-enamide]",94.3429
14,"C=CC(=O)N1CCC(O)(C(F)(F)C(N)=O)C1 (stereo not drawn) [2-C16, 2,2-difluoro-2-[3-hydroxy-1-(prop-2-enoyl)pyrrolidin-3-yl]acetamide]",131.941
15,"CCOc1ccc2nc(NC(=O)CCl)sc2c1 [4-L10, 2-chloro-N-(6-ethoxy-1,3-benzothiazol-2-yl)acetamide]",129.586
16,"O=C(CCl)Cc1ccc(F)c(F)c1 [10-O17, 1-chloro-3-(3,4-difluorophenyl)propan-2-one]",107.813
17,"NC(=O)COc1ccc(C(=O)CCl)cc1 [10-M07, 2-[4-(2-chloroacetyl)phenoxy]acetamide]",111.563
18,"C=CC(=O)NCCC(=O)NC1CCCCC12OCCO2 (stereo not drawn) [2-O08, N-[2-({1,4-dioxaspiro[4.5]decan-6-yl}carbamoyl)ethyl]prop-2-enamide]",124.63
19,"Cl.O=C(CCl)Nc1ccc(CN2CCCCC2)cc1 [6-M04, 2-chloro-N-{4-[(piperidin-1-yl)methyl]phenyl}acetamide hydrochloride]",110.976
20,"N#CC(=Cc1cn(-c2ccccc2)nc1-c1ccc(Cl)cc1)C(N)=O [8-H16, 3-[3-(4-chlorophenyl)-1-phenyl-1H-pyrazol-4-yl]-2-cyanoprop-2-enamide]",107.552
21,"N#CC(=Cc1cc(F)ccc1F)C(=O)Nc1cc(Cl)ccc1Cl [8-A12, 2-cyano-N-(2,5-dichlorophenyl)-3-(2,5-difluorophenyl)prop-2-enamide]",131.12
22,"C=CC(=O)Nc1ccnn1CC1CC1 [3-G09, N-[1-(cyclopropylmethyl)-1H-pyrazol-5-yl]prop-2-enamide]",117.719

# Source: paper PMC11995724, “Antibiotic target discovery by integrated phenotypic and activity-based profiling of electrophilic fragments” (Cell chemical biology, 2025)
